Data taken from paper PMC4336329 (PLoS ONE, 2015).
The whole screen tested about 310,000 compounds, of which about 2,200 (0.71%) showed an effect of 50% or more. Effects have a minus sign here. The list shows a part of the results.

molecular target: human ether-à-go-go-related gene (hERG) potassium channel (human, UniProt Q12809); experiment: primary screen, population patch clamp on CHO cells stably expressing hERG
Sequence (Q12809 whole entry, looked up): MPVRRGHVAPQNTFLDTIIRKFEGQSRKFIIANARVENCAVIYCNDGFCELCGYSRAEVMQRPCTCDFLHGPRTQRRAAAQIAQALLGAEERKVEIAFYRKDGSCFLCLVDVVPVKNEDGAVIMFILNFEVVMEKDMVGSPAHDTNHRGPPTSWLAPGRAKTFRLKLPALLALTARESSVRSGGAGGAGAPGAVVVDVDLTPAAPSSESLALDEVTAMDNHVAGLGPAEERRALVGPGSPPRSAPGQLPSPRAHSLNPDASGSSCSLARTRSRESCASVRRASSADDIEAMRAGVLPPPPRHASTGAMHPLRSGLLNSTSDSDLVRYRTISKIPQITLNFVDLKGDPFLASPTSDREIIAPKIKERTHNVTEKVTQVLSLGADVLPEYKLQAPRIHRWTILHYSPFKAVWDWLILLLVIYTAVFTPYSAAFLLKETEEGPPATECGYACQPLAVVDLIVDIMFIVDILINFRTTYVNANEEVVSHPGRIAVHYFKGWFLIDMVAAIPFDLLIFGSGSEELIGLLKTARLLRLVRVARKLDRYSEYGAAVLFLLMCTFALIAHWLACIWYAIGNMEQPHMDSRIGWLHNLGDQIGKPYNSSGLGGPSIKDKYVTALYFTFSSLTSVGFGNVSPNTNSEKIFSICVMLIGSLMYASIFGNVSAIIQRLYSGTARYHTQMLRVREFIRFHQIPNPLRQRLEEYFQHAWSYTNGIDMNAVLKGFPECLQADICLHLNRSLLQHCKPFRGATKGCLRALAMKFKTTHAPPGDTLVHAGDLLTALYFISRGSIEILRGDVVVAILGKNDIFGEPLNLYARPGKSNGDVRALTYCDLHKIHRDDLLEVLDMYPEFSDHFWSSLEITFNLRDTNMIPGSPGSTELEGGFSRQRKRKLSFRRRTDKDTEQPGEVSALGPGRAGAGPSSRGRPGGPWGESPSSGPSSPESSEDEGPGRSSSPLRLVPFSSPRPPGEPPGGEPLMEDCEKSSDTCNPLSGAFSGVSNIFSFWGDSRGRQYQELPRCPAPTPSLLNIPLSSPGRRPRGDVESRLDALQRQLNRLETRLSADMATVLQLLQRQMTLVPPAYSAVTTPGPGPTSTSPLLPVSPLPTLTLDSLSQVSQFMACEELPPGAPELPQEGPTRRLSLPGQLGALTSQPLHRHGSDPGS

| SMILES | hERG current change (%, negative = inhibition) at 1uM [%] |
| --- | --- |
| C/C(=N\Nc1ccc(Cl)c(C(=O)O)c1)c1ccc2c(c1)OCO2 | 25.5 |
| O=C(Nc1nc2n(n1)C(c1ccc(Cl)cc1)CC(c1ccc(Cl)cc1)N2)c1ccco1 (stereo not shown) | -3.7 |
| O=C(NCc1ccco1)c1nn2c(C(F)(F)F)cc(-c3cccs3)nc2c1Cl | 6.34 |
| CC[C@@]12C(=O)N(c3ccc(C)cc3)C(=O)N1[C@H](c1ccc(Br)cc1)[C@@H]1C(=O)N(C(C)(C)C)C(=O)[C@@H]12 | 9.86 |
| COC(=O)c1c(NC(=O)Cc2cccs2)sc2c1CCCC2 | 3.71 |
| CN1C(=O)N(CC(=O)N2CCN(S(=O)(=O)/C=C/c3ccccc3)CC2)C(=O)C12CCCCC2 | 4.7 |
| Cc1ccc(SCC(=O)N2CC(C)OC(C)C2)cc1 (stereo not shown) | 10.9 |
| CCOC(=O)N1CCN(C(=O)Nc2ccc(Cl)cc2)CC1 | -1.23 |
| CC(=O)c1sc(NC(=O)COc2ccc(C(C)C)c(C)c2)nc1C | 10.4 |
| O=C(O)CC1S/C(=N\N=C2\C(=O)Nc3ccccc32)N(c2ccc(O)cc2)C1=O (stereo not shown) | 1.39 |
| Cc1ccccc1N(CC(=O)NCc1ccncc1)S(C)(=O)=O | 31.5 |
| CCOc1ccc(NC(=O)CCC(=O)NNC(=O)c2ccc(Br)o2)cc1 | 15.5 |
| Cn1nc(-c2ccc(OCC(=O)N3CCN(Cc4ccccc4)CC3)cc2)c2ccccc2c1=O | 5.73 |
| COc1ccccc1/C=C(/C(=O)OCC(=O)N(C)Cc1ccccc1)c1ccccc1 | 12 |
| Cc1ccc(C(=O)NC(=S)N2CCN(c3cc(C)ccc3C)CC2)cc1 | -5.07 |
| OCCSc1nnc(Nc2ccccc2)s1 | -1.33 |
| CO/N=C/C(C#N)=C/c1cc(C(=O)c2ccccc2)cn1C | 17.1 |
| COc1ccc(N=C2NC(=O)/C(=C/c3ccc(O)c(OC)c3)S2)cc1 | 10 |
| OCc1cn(-c2ccccc2)nn1 | 12.9 |
| Cc1ccc2cc3cc(C(=O)NCc4ccco4)oc3nc2c1 | 10.1 |
| COc1ccc(Cl)cc1C(=O)NCC(=O)OCc1ccccc1 | -0.0765 |
| CC/C(=N\Nc1ccccc1)c1c(O)[nH]c(=O)[nH]c1=O | 21.4 |
| O=C1CCCCN1CC(=O)N1CCCC(N2CCN(c3ccccc3F)CC2)C1 (stereo not shown) | 3.41 |

| SMILES | hERG current change (%, negative = inhibition) at 1uM [%] |
| --- | --- |
| NC(=O)CSC1=Nc2ccccc2C2=NC(CC(=O)NCc3cccs3)C(=O)N12 (stereo not shown) | 10.4 |
| O=C(Nc1c(-c2ccccc2)nc2ccccn12)c1ccccc1F | 2.01 |
| CCOc1ccc(-c2cc(C)[n+](CCO)c(-c3ccc(OCC)cc3)c2)cc1.[O-][Cl+3]([O-])([O-])[O-] | 1.92 |
| COc1ccc(OC)c2[nH]c(=O)c(CCNC(C)=O)cc12 | 8.31 |
| CCCCc1ccc(NC(=O)COc2ccc(C(=O)Nc3ccccc3OC)cc2)cc1 | 16.1 |
| Cc1ccc(-c2nn(-c3ccccc3)cc2C(N)=O)o1 | 10.6 |
| COc1ccc(CCN(C)C(=O)Cn2c(=O)oc3ccccc32)cc1OC | 14.1 |
| O=C(Nc1ccc(F)c(Cl)c1)NC1CC1 | 9.81 |
| COc1ccc(NC(=O)C2C(=O)N(C)C3(C)CC2c2ccccc2O3)cc1 (stereo not shown) | 3.33 |
| C=CCn1c(=O)c(C=Nc2cccc([N+](=O)[O-])c2)c(O)n(CCCC)c1=O | -31.1 |
| COc1ccc(CC(=O)N2CCN(c3cccc(Cl)c3)CC2)cc1OC | 8.32 |
| CC1Cc2ccccc2N1C(=O)CCn1cccn1 (stereo not shown) | 11.2 |
| O=C(Nc1ccc2c(c1)C(=O)N(c1ccccc1)C2=O)c1cccs1 | 6.79 |
| COC(=O)c1ccc(OC)c(CSc2nnc(COc3cccc(C)c3)o2)c1 | 1.62 |
| C/C(=C\c1ccc(Cl)cc1)C(=O)c1c(C)cc(C)[nH]c1=O | 3.88 |
| Cn1c(SCC(=O)Nc2ccccc2C(F)(F)F)nc2c(c1=O)SCC2 | -29.1 |
| CCOC(=O)CNC(=O)CSc1nnc(Cn2c(=O)sc3ccccc32)n1C | 10.7 |
| Cc1ccc(O)c(C2=NOC(O)(C(F)(F)C(F)F)C2)c1 (stereo not shown) | 11.2 |
| Cc1n[nH]c(=O)c2c(NC(=O)CSc3ncccn3)oc(C)c12 | 14.8 |
| O=C(CN1CCN(c2ccccn2)CC1)Nc1cccc(Cl)c1Cl | 9.2 |
| CCCCn1c(SCC(=O)Nc2ccc(OC)cc2)nc2ccc(N3CCOCC3)cc2c1=O | 2.85 |
| N#CC1CC(c2ccccc2)=NN1c1ccccc1[N+](=O)[O-] (stereo not shown) | 11 |
| CC(=O)NCCn1c(SCC(=O)OCc2ccccc2)nc2ccccc2c1=O | -38.1 |

| SMILES | hERG current change (%, negative = inhibition) at 1uM [%] |
| --- | --- |
| Cc1csc(C(=O)O)c1NC(=O)c1c(Cl)cccc1Cl | 8.63 |
| O=C(COC(=O)[C@@H]1CCCN1S(=O)(=O)c1ccccc1F)Nc1ccc(OC(F)F)cc1 | -27.8 |
| COc1ccc(C(=O)NCc2ccc3c(c2)CCO3)cc1 | 7.77 |
| CCc1ccc(OCCOCC(O)CN(CCO)CCO)cc1.Cl (stereo not shown) | 13.9 |
| COc1ccc(NC(=S)N2CCN(C/C=C/c3ccccc3)CC2)cc1 | -5.21 |
| Cc1cc2cc(CNC(=O)Nc3ccccc3)ccc2n1C | 13.1 |
| C=CCn1c(SCC(=O)c2[nH]c(C)c(C(C)=O)c2C)nnc1-c1ccncc1 | 12 |
| CCOC(=O)c1nc(C)n(-c2cc(Cl)cc(Cl)c2)n1 | 6.28 |
| S=c1[nH]nc(-c2ccccc2)c2ccccc12 | 8.34 |
| Cl.N=c1n(CCN2CCCCC2)c2ccccc2n1CC(O)c1ccc(Cl)c(Cl)c1 (stereo not shown) | -70.4 |
| Cn1c(SCC(=O)c2ccccc2)nnc1-c1ccc(O)cc1 | -5.87 |
| CNc1snc(C)c1C(=O)OCC(=O)N(C)Cc1ccccc1 | 8.86 |
| N#CC(C#N)=C1C=CC=CN1/C(=C\c1ccccc1)C(=O)c1cccs1 | 11.9 |
| CCN(CC)c1ccc(/C=N\NC(N)=O)cc1 | 3.34 |
| Cn1c(SCC(=O)N2CCOCC2)nnc1-c1ccco1 | 15.3 |
| Cc1ccccc1CNCc1cccnc1 | 6 |
| Cc1nn(C)cc1/C=N\NC(=O)c1ccc(Cn2cc(Cl)cn2)cc1 | 8.34 |
| CCc1nnc(NC(=O)CSc2nnc(CNc3ccc(OC)cc3)n2CC)s1 | 12.4 |
| CCN(CC)S(=O)(=O)c1ccc(Cl)c(NC(=O)c2cc(Cl)cc(Cl)c2)c1 | 16.3 |
| Cc1cc(C)n2nc(-c3cccnc3)nc2n1 | 11.9 |
| CCOC(=O)C(C#N)=C1CCN(Cc2ccccc2)CC1 | 14.5 |
| CC(C)CCNC(=O)Cc1csc(-c2ccccc2)n1 | 6.54 |
| CCOc1ccc(CCNC(=O)COC(=O)c2cc(OC)cc(OC)c2)cc1OCC | 2.97 |

| SMILES | hERG current change (%, negative = inhibition) at 1uM [%] |
| --- | --- |
| O=C1/C(=C/c2ccc([N+](=O)[O-])cc2)CCC1C1CCCC1 (stereo not shown) | 15.1 |
| O=C(COc1ccc(/C=N/NC(=O)C(=O)N2CCCCC2)cc1)Nc1ccccc1Cl | 17.8 |
| COc1ccc(Cc2nnc(NC(=O)Cc3cccs3)s2)cc1OC | 15.6 |
| Cc1ccc(CNC(=O)CCS(=O)(=O)c2cc(Br)cc3c2N(C(=O)C2CC2)CC3)o1 | 8.69 |
| Cn1c(SCC(N)=O)nnc1C1CCN(C(=O)NCc2ccccc2)CC1 | 14.4 |
| Cc1ccc(C)c(OCC(=O)NCCN(C)C)c1.Cl | 19.1 |
| CCOC(=O)C1=C(c2ccccc2)NC(=O)NC1c1cc(OC)c(OC)cc1OC (stereo not shown) | 13.1 |
| CC(C)c1ccc(C2N3CCCN23)cc1 (stereo not shown) | 9.3 |
| Cc1cc(C(=O)Nc2ccc3c(c2)OCO3)cs1 | -1.09 |
| Cc1cc(Sc2nnc(N)s2)c2ccccc2n1 | 8.39 |
| O=C(NC1CCCCCC1)C1CCCN(c2ncccn2)C1 (stereo not shown) | 13.1 |
| Cc1csc2nc(CNS(=O)(=O)c3ccc(-c4ccccc4)cc3)cn12 | 14.2 |
| COc1cc(/C=C(\C#N)c2nc3ccccc3s2)ccc1OCC(=O)Nc1ccccc1 | 9.04 |
| COc1ccc2c(/C=N/NS(=O)(=O)c3ccc(C)cc3)c[nH]c2c1 | 5.82 |
| CC1(C)CC(=O)c2cnc(NC(=O)CSc3nc4ccccc4o3)nc2C1 | 16.4 |
| CCOC(=O)c1cc(C#N)c(SCC(=O)c2cc(C#N)c(SC)nc2C)nc1C | 4.66 |
| CN(C(=O)C(C)(C)C)C1c2c(ccc3ccccc23)OCC1CO (stereo not shown) | 8.62 |
| CCC(C(=O)Nc1cccnc1Cl)c1ccccc1 (stereo not shown) | 14.2 |
| Cc1ccc2nsnc2c1NC(=O)CCc1ccccc1 | -4.24 |
| O=C1C=C(O)c2cccc(O)c2C1=O | 19.4 |
| COc1cccc(CN(CC(=O)NCC2CCCO2)C(=O)CNS(=O)(=O)c2ccccc2)c1 (stereo not shown) | 4.02 |
| Cl.O=C(NCCN1CCCC1)c1cccc(Cl)c1 | -13.1 |
